Measured values from article PMC6753376.
For part of its entries the source gives two or more results. Only these are listed. There may be further records. Some protein pairs were linked at several places, one record each.

Tests used:
Assay in all cases: cross-linking mass spectrometry
Conditions in all cases: lysate
CCT2 = CCT2 (UniProt P78371)
CCT3 = CCT3 (UniProt P49368)
CCT4 = CCT4 (UniProt P50991)
MCM7 = MCM7 (UniProt P33993)
PSME2 = PSME2 (UniProt Q9UL46)
SMC4 = SMC4 (UniProt Q9NTJ3)
Sequence of UniProt Q9NTJ3 (Q9NTJ3 whole entry): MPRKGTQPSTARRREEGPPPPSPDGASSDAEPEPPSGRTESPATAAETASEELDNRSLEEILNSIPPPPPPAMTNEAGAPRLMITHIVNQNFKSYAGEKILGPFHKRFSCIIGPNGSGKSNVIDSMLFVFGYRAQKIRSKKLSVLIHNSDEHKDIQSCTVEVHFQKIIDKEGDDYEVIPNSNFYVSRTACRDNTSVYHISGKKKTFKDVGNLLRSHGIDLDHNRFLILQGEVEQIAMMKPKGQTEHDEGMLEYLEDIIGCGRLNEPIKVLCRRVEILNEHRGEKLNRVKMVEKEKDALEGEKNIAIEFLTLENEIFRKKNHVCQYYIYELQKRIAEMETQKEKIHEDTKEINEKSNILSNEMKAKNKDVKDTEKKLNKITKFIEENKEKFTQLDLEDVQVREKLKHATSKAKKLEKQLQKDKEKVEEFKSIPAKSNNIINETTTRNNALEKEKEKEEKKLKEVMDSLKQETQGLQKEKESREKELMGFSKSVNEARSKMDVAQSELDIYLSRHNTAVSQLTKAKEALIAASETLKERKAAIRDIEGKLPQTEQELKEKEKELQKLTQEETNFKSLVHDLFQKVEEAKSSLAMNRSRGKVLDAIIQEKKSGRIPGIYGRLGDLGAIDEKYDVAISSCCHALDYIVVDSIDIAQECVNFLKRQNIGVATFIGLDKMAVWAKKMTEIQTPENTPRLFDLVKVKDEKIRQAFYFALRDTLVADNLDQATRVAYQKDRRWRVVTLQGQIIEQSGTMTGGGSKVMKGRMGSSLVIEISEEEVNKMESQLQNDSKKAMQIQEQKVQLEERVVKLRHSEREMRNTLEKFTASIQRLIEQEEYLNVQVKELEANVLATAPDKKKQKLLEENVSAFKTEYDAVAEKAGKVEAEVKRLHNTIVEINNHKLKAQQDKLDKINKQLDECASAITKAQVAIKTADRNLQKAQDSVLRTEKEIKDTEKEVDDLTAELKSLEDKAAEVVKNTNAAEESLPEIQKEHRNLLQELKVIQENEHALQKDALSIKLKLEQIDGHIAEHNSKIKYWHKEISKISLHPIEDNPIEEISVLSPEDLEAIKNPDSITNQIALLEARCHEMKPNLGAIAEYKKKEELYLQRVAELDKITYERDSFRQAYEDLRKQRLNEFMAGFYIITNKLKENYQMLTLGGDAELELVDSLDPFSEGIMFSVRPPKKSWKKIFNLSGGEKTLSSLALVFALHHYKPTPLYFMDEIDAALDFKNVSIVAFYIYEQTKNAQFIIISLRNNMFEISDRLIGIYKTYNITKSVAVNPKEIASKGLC

Sequence of PSME1 (Q06323 whole entry): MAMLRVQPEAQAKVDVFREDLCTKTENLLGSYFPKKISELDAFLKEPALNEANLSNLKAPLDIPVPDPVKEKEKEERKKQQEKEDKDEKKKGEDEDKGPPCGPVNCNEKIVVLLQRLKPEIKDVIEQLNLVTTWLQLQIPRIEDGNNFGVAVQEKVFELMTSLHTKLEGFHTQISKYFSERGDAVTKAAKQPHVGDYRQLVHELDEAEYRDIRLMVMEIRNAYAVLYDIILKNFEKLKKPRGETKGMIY
Sequence of UniProt P49368 (P49368 whole entry): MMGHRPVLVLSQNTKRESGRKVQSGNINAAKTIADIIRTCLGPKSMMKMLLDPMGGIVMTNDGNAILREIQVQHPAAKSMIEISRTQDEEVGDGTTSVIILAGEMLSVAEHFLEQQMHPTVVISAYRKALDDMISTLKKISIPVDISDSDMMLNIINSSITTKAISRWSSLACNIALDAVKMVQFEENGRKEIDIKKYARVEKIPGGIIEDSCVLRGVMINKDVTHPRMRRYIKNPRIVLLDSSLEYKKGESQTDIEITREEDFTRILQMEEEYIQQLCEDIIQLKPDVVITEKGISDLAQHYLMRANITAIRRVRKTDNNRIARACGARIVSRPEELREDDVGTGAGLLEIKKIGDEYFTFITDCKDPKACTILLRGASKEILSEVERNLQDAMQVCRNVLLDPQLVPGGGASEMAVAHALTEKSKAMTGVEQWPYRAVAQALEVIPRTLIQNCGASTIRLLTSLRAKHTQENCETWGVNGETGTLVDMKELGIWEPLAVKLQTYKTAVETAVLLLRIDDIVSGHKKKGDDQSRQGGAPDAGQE
Sequence of SMC2 (O95347 whole entry): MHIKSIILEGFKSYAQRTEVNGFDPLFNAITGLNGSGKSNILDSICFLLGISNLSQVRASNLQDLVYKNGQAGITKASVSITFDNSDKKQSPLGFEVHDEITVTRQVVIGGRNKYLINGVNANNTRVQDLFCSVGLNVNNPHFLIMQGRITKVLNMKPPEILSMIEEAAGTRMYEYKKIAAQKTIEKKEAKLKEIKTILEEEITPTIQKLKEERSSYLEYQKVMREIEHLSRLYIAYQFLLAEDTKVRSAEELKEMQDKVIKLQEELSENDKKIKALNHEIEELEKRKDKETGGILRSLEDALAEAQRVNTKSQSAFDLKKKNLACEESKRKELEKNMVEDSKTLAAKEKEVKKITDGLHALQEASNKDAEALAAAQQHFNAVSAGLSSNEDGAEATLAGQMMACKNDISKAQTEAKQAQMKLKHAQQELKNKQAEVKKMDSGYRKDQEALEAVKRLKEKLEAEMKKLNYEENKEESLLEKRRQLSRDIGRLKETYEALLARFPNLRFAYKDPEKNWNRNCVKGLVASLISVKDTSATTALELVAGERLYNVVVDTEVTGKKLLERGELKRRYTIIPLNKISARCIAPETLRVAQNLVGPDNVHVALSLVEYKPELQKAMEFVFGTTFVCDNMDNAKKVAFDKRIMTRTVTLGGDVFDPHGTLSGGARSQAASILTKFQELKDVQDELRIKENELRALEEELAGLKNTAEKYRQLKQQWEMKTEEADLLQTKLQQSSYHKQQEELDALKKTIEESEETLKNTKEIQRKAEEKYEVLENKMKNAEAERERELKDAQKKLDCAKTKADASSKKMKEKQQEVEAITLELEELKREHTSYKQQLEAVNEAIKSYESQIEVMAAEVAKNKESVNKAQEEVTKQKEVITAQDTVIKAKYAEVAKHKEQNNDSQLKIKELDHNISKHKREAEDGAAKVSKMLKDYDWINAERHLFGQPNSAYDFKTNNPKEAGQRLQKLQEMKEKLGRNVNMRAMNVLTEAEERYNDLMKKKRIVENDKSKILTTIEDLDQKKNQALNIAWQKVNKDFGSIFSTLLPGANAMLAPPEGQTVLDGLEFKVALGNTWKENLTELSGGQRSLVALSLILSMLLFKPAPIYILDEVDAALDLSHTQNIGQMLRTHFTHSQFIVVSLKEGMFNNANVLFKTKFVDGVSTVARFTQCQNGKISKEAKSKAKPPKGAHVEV
Sequence of UniProt Q9UL46 (Q9UL46 whole entry): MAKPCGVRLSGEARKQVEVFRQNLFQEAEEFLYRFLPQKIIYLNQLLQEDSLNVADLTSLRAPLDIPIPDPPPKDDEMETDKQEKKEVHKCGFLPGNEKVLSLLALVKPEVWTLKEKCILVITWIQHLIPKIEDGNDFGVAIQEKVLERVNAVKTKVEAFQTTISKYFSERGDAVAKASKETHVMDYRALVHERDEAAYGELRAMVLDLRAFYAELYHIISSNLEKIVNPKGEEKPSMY
Sequence of UniProt P78371 (P78371 whole entry): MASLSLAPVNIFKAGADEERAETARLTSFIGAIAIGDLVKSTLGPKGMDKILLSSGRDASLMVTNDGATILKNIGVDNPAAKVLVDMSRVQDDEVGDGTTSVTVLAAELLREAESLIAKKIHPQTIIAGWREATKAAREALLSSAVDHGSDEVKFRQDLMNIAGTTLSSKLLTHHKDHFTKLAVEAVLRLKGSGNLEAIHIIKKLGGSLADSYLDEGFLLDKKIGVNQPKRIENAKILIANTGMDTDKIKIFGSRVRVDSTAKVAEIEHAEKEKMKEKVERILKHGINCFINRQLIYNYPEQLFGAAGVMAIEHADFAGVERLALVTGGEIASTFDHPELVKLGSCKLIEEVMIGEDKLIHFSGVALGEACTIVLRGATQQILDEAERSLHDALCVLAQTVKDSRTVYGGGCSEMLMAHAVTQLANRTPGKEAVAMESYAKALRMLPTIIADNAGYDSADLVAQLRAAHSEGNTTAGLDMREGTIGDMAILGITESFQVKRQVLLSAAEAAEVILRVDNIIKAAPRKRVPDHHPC
Sequence of CCT4 (P50991 whole entry): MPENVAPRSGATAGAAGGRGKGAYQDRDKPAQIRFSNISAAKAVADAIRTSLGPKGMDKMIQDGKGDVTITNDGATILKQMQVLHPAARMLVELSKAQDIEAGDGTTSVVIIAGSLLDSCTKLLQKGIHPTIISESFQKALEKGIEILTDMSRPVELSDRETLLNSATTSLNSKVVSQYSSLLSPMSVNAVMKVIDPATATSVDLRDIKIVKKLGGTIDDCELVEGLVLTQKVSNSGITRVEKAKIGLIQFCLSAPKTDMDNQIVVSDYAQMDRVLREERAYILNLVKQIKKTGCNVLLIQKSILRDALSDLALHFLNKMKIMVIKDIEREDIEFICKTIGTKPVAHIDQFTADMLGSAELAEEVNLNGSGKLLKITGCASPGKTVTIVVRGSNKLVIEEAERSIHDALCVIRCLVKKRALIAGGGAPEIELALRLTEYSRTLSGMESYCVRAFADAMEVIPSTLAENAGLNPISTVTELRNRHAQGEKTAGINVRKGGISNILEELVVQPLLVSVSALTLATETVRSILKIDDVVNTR
Sequence of CCT4, P50991 (P50991 whole entry): as above

Substance: CCT4, P50991
- cross-linked residues (CCT2): P2 - K120 and P2 - K522 and S9 - K522 and K21 - K120 and K21 - K522 and K29 - K120

Substance: CCT5, P48643
- cross-linked residues (CCT2): K275 - K284 and K368 - K342 and K368 - K402

Substance: TCP1, P17987
- cross-linked residues (CCT3): K63 - K529 and K494 - K128
- cross-linked residues (CCT4): K126 - K55 and K532 - P2

Substance: CCT6A, P40227
- cross-linked residues (CCT3): K10 - K21 and K530 - K381

Substance: MCM4, P33991
- cross-linked residues (MCM7): K409 - K174 and K627 - K596

Substance: PSME1, Q06323
- cross-linked residues (PSME2): K187 - K180 and K190 - K177 and K190 - K180

Substance: SMC2, O95347
- cross-linked residues (SMC4): K320 - K405 and K493 - K573 and K911 - K1009 and K930 - K1031
